Reference: the supplement of paper PMC4166925
± gives the standard deviation of the averaged measurements. Over roughly 33,000 sequences, “E-score (dimensionless, -0.5 to 0.5)” has its median near -0.049; the highest 2% begin near 0.37. The list shows a part of the results.

tested on: T1, PmTbr T-box DNA-binding domain (GST fusion); assay: PBM E-score of 8-mer (E-score (dimensionless, -0.5 to 0.5)); Tbr is Tbrain of the sea star Patiria miniata (Pm) or the sea urchin Strongylocentrotus purpuratus (Sp); higher = stronger binding preference; most listed sequences are background and not binding sites; settings: the construct has about 5 more residues each side
T1 sequence: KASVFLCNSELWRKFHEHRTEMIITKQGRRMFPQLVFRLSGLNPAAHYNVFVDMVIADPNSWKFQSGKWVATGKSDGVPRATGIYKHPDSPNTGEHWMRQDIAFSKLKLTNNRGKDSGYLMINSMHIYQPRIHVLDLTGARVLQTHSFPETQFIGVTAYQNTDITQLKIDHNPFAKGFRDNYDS
Procedure: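 Universal protein-binding microarray (Agilent AMADID 016060, 60-bp probes with a 35-bp variable region) incubated with 200 nM GST-fused Patiria miniata Tbr T-box DNA-binding domain (residues 272-466) in PBS pH 7.5. Scored for every ungapped 8-mer (given with its reverse complement) by the Universal PBM Analysis Suite as E-score (modified Wilcoxon-Mann-Whitney enrichment, range -0.5 to 0.5; >0.45 counts as bound) and Z-score of median probe intensity. Two replicate arrays (datasets 1 and 2).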

First: CAGAGTCA
Second: TATTCCCA
The “PBM E-score of 8-mer” value of the first is lower: -0.282 ± 0.044 for the first, -0.15 ± 0.029 for the second.

Going from CGGATCCG to GGCCCTAA, the “PBM E-score of 8-mer” value falls from -0.0771 ± 0.048 to -0.2803 ± 0.00044.

Compared with TATAGGGA, AGCCGTTA is higher in “PBM E-score of 8-mer” value: -0.249 ± 0.013 for the first, 0.161 ± 0.0036 for the second.

GCGGGTCA and CGGGCAGC are within error of each other in “PBM E-score of 8-mer” value: 0.0142 ± 0.11 for the first, -0.0554 ± 0.0018 for the second.

Compared with CACCCGCG, CTAGTCAG is lower in “PBM E-score of 8-mer” value: 0.3 ± 0.034 for the first, 0.0144 ± 0.011 for the second.

GCCGCGGA and GAGACTAA are within error of each other in “PBM E-score of 8-mer” value: -0.144 ± 0.13 for the first, -0.0557 ± 0.043 for the second.

First: CCTAAGGA
Second: AGGCGACT
The “PBM E-score of 8-mer” value of the first is higher: -0.147 ± 0.024 for the first, -0.208 ± 0.02 for the second.

First: CCCTATGC
Second: ACTTCGGA
The “PBM E-score of 8-mer” value of the first is lower: -0.0548 ± 0.048 for the first, 0.0402 ± 0.032 for the second.

AGAAAGCG and ACTCCCCA are within error of each other in “PBM E-score of 8-mer” value: 0.0425 ± 0.071 for the first, 0.0161 ± 0.0096 for the second.

First: CCGCCCCA
Second: AGTGTCTA
The “PBM E-score of 8-mer” value of the first is lower: -0.155 ± 0.064 for the first, 0.213 ± 0.017 for the second.

CGTAATCA and ATGGGTAA are within error of each other in “PBM E-score of 8-mer” value: 0.0187 ± 0.0013 for the first, -0.0443 ± 0.093 for the second.

Compared with GTGGCAAC, CTTACTCC is lower in “PBM E-score of 8-mer” value: 0.321 ± 0.006 for the first, -0.136 ± 0.052 for the second.

Compared with CAACACCG, CTATAGTC is lower in “PBM E-score of 8-mer” value: 0.3 ± 0.013 for the first, 0.0257 ± 0.0081 for the second.

First: ACTTACAA
Second: AAGAGTAA
The “PBM E-score of 8-mer” value of the first is higher: -0.00796 ± 0.07 for the first, -0.144 ± 0.0032 for the second.

ATTCCTCG and AACCGTAT are within error of each other in “PBM E-score of 8-mer” value: -0.0674 ± 0.053 for the first, -0.12 ± 0.061 for the second.

CAAACGGC and AAGCTGAC are within error of each other in “PBM E-score of 8-mer” value: -0.0305 ± 0.062 for the first, -0.0246 ± 0.033 for the second.

Going from CCGGCATC to ATTGAAGG, the “PBM E-score of 8-mer” value rises from -0.299 ± 0.01 to -0.107 ± 0.068.

First: CCTGTGAC
Second: AGCGTAGC
The “PBM E-score of 8-mer” value of the first is higher: 0.309 ± 0.013 for the first, -0.0635 ± 0.038 for the second.

First: GAGATTGC
Second: CCTTCGTC
The “PBM E-score of 8-mer” value of the first is higher: 0.201 ± 0.018 for the first, 0.16 ± 0.011 for the second.

CTCCGCCC and GCAGAGTA are within error of each other in “PBM E-score of 8-mer” value: -0.11 ± 0.003 for the first, -0.0658 ± 0.073 for the second.

GAGTATTA and AATAGCGG are within error of each other in “PBM E-score of 8-mer” value: -0.102 ± 0.014 for the first, -0.0637 ± 0.035 for the second.

ACCGCAGT and GAGCCCGA are within error of each other in “PBM E-score of 8-mer” value: -0.195 ± 0.14 for the first, -0.29 ± 0.0082 for the second.

ACCGACCC and AAAAGGAC are within error of each other in “PBM E-score of 8-mer” value: 0.00535 ± 0.068 for the first, -0.0773 ± 0.053 for the second.

First: AACCACTG
Second: CCGAACCA
The “PBM E-score of 8-mer” value of the first is lower: -0.294 ± 0.0095 for the first, -0.102 ± 0.014 for the second.

Compared with TCGGAGCA, AAATGCCG is higher in “PBM E-score of 8-mer” value: -0.0542 ± 0.0025 for the first, 0.0146 ± 0.012 for the second.

Going from CCCTCTAC to AATGATTC, the “PBM E-score of 8-mer” value falls from -0.151 ± 0.004 to -0.259 ± 0.021.

Compared with AGCCCGCA, ACCTGAGA is higher in “PBM E-score of 8-mer” value: -0.0489 ± 0.053 for the first, 0.185 ± 0.024 for the second.

Going from GGACCCAC to CACGAGCG, the “PBM E-score of 8-mer” value rises from -0.11 ± 0.12 to 0.0861 ± 0.0097.

Compared with GGCACAAA, GACAAAGA is higher in “PBM E-score of 8-mer” value: -0.184 ± 0.024 for the first, 0.17 ± 0.068 for the second.

Going from CAGTGTAA to CACTCCTC, the “PBM E-score of 8-mer” value rises from -0.0163 ± 0.029 to 0.233 ± 0.037.

Going from AGCTCCGG to CTACGACC, the “PBM E-score of 8-mer” value falls from -0.193 ± 0.064 to -0.416 ± 0.016.

Compared with AACCATTA, AGGAGCTC is lower in “PBM E-score of 8-mer” value: -0.0792 ± 0.07 for the first, -0.304 ± 0.028 for the second.

CCGGTCTA and GAGGATGA are within error of each other in “PBM E-score of 8-mer” value: -0.167 ± 0.071 for the first, -0.0848 ± 0.045 for the second.

Compared with AGACCATC, CAGGTCTA is higher in “PBM E-score of 8-mer” value: -0.269 ± 0.029 for the first, -0.152 ± 0.069 for the second.

ACGGAAGA and ATATTATA are within error of each other in “PBM E-score of 8-mer” value: -0.124 ± 0.1 for the first, -0.157 ± 0.025 for the second.

ATACACCG and AAGCGGCC are within error of each other in “PBM E-score of 8-mer” value: -0.00419 ± 0.051 for the first, 0.00238 ± 0.056 for the second.

CGGCCTGA and CCGTACCG are within error of each other in “PBM E-score of 8-mer” value: -0.111 ± 0.027 for the first, -0.13 ± 0.044 for the second.

Compared with ATTTAGAA, CTGGTCAA is higher in “PBM E-score of 8-mer” value: -0.16 ± 0.02 for the first, -0.117 ± 0.004 for the second.

First: CTAGACCA
Second: AAGTCTCA
The “PBM E-score of 8-mer” value of the first is lower: -0.132 ± 0.0065 for the first, 0.106 ± 0.067 for the second.

Compared with AACGCATC, CTAATGAA is lower in “PBM E-score of 8-mer” value: -0.1209 ± 0.001 for the first, -0.131 ± 0.0059 for the second.

AAAGATAG and AGTTAAGC are within error of each other in “PBM E-score of 8-mer” value: -0.22 ± 0.0093 for the first, -0.187 ± 0.051 for the second.

Compared with ACTAACAC, CGCGAAAA is lower in “PBM E-score of 8-mer” value: 0.412 ± 0.007 for the first, 0.359 ± 0.019 for the second.

Going from CCTAATCG to CTTTTGAA, the “PBM E-score of 8-mer” value falls from -0.0939 ± 0.05 to -0.235 ± 0.034.
